Measurements as given in PubChem BioAssay AID624296 (National Center for Advancing Translational Sciences (NCATS), 2012).
Out of some 350,000 compounds screened, about 9,900 (2.8%) were called active. Inconclusive means that the source gave no clear call. Such entries were picked first, then a sample of the others. Calls follow the shape of the dose curve; as a rule, active = well fitted activation curve with a large enough effect; inconclusive = small, poorly fitted or top-dose-only effect; inactive = no such curve, though single readings can be large or run the other way. No potency is given beside an inconclusive call; the fits are too rough.
Potency is read from the fitted curve at half-maximal effect; tags tell the direction and shape of the fitted curve.

Assay: A quantitative high throughput screen for small molecules that induce DNA re-replication in MCF 10a normal breast cells. Also: nearly all actives have a fitted effect of over 50% in size.
Settings: MCF 10A DNA re-replication, Hoechst nuclear intensity, 48 h; series mostly up to 46.1 µM
With `COc1ccc(-c2onc(C)c2-c2ccc3c(c2)OCCO3)c(O)c1` the Potency was inconclusive [activator, single point].
In the case of `COc1ccc(/C=C/C(=O)Oc2cc(O)cc(O)c2)cc1`, the Potency is reported as inconclusive [activator, single point].
With `Cc1ccc(OCCNC(=O)c2cc(C3CC3)nc3c2cnn3C(C)C)cc1` the Potency was inconclusive [activator, partial curve, poor fit].
In the case of `Cc1ccc(S(=O)(=O)Nc2ccccc2CNc2ccc(Br)cn2)cc1`, the Potency is reported as inconclusive [activator, single point].
With `CC(=O)Nc1ccc(S(=O)(=O)N(Cc2ccccc2)c2ccccn2)cc1` the Potency was inconclusive [activator, single point].
With `CCc1c(C)sc2nc(C(C)C)nc(SCC(=O)N3CCc4ccccc4C3)c12` the Potency was “inactive”.
In the case of `COc1ccc(CN2CCCC(CO)(Cc3ccc(F)cc3F)C2)cc1` (stereo not given), the Potency is reported as inconclusive [activator, partial curve, poor fit].
With `Cc1coc2c(C)c3oc(=O)c(CCC(=O)N4CCC(C(=O)NCCCC(=O)O)(c5ccccc5)CC4)c(C)c3cc12` the Potency was “inactive”.
For `CCOC(=O)c1c(NC(=O)CSc2nc3ccc(C)cc3[nH]2)sc2c1CC(C)(C)NC2(C)C`, the Potency was inconclusive [activator, single point].
For `CCOc1ccc(C(Nc2cccnc2)c2cc(Cl)c3cccnc3c2O)cc1` (stereo not given), the Potency was inconclusive [activator, partial curve, poor fit].
For `Cc1cc(C)c2nc(C(F)(F)F)c(C#N)c(N)c2c1`, the Potency was inconclusive [activator, full curve, poor fit].
In the case of `CC(=O)Nc1ccc(S(=O)(=O)N2CCSCC2)cc1`, the Potency is reported as inconclusive [activator, partial curve, poor fit].
For `c1ccc(Cc2noc(CN3CCCN(C4Cc5ccccc5C4)CC3)n2)cc1`, the Potency was inconclusive [activator, partial curve, poor fit].
With `CCOC(=O)C(NC(=O)c1ccccc1)C(C)(C)SCc1ccccc1` (stereo not given) the Potency was “inactive”.
In the case of `CC(=O)SC(C)CC(=O)NCc1ccccc1` (stereo not given), the Potency is reported as inconclusive [activator, single point].
For `COc1cccc(OCCNC(=O)CSc2ccc(C(F)(F)F)cc2[N+](=O)[O-])c1`, the Potency was inconclusive [activator, single point].
With `N#CC1CC(c2ccccc2)Nc2cc(Cl)ccc2N1` (stereo not given) the Potency was inconclusive [activator, partial curve, poor fit].
For `O=C(CC(c1ccco1)C1CCCCC1=O)c1ccccc1` (stereo not given), the Potency was inconclusive [activator, single point].
In the case of `N#Cc1c(-c2ccco2)nc(SCc2ccc(F)cc2)[nH]c1=O`, the Potency is reported as inconclusive [activator, single point].
With `Cc1oc2ccc(NS(=O)(=O)c3cccc4cccnc34)cc2c1C(=O)OC(C)C` the Potency was inconclusive [activator, single point].
With `CC1(C)CC(=O)C2=C(C1)NC1=C(C(=O)c3ccccc31)C2c1cc([N+](=O)[O-])ccc1O` (stereo not given) the Potency was inconclusive [activator, single point].
In the case of `COCCNC(=O)c1c(CSc2ccccc2)noc1C(=O)NCc1ccccc1`, the Potency is reported as inconclusive [activator, single point].
In the case of `Cc1ccnc(NC(=O)CCCOc2cc(=O)n(C)c3ccccc23)c1`, the Potency is reported as active: 14.6 µM.
For `Cc1cc(C(F)(F)F)nn1Cc1n[nH]c(=S)n1-c1cccc(Cl)c1`, the Potency was inconclusive [activator, single point].
In the case of `Cc1sc2nc(CN(Cc3cccs3)C(=O)C3CC3)[nH]c(=O)c2c1C`, the Potency is reported as “inactive”.
With `CN(C)CC(O)c1ccc(C=Cc2ccc(Cl)cc2)cc1` (stereo not given) the Potency was inconclusive [activator, single point].
For `CC(C(=O)NCC1CCCCC1)N(C)Cc1cccc(Cl)c1` (stereo not given), the Potency was inconclusive [activator, partial curve, poor fit].
For `O=C(Nc1ccnn1C1CCN(CCCc2ccccc2)CC1)c1ccccc1`, the Potency was inconclusive [activator, single point].
With `CCCc1ccc(Oc2cn[nH]c2-c2ccc(O)c(C)c2O)cc1` the Potency was inconclusive [activator, single point].
With `Cc1ccc(C)c(S(=O)(=O)NCc2ccc(C(=O)N3CCCCCC3)cc2)c1` the Potency was inconclusive [activator, partial curve, poor fit].
For `Oc1ccc(/C=N/Nc2ncnc3c2ncn3Cc2ccccc2)cc1O`, the Potency was inconclusive [activator, partial curve, poor fit].
In the case of `Cc1nn(C)c(C(=O)Sc2cccc(Cl)c2)c1[N+](=O)[O-]`, the Potency is reported as active: 18.4 µM.
In the case of `COc1ccc2[nH]cc(CCn3ccc(=O)c(C)c3C)c2c1`, the Potency is reported as inconclusive [activator, partial curve, poor fit].
For `COc1ccc(-n2c(=O)[nH]c3cc(C(=O)NCCc4ccc(Cl)cc4)ccc3c2=O)cc1OC`, the Potency was active: 14.6 µM.
With `O=C(Nc1cccnc1)c1ccc([N+](=O)[O-])s1` the Potency was inconclusive [activator, partial curve].
With `CC[C@H](C)Cc1cn([C@@H](CCCN=C(NC(=O)OC(C)(C)C)NC(=O)OC(C)(C)C)C(=O)NCCCCCCCCCCC(=O)N2CCN(C(=O)OC(C)(C)C)CC2)nn1` the Potency was inconclusive [activator, partial curve, poor fit].
With `CCOC(=O)COc1cc(Br)c(/C=N/Nc2ccccc2)cc1OC` the Potency was inconclusive [activator, single point].
In the case of `Cc1ccc(C)c(NC(=O)Cn2nnc(C(=O)NCc3cccs3)c2N)c1`, the Potency is reported as inconclusive [activator, partial curve, poor fit].
With `CCOc1ccccc1Nc1nc(-c2sc(C)nc2C)cs1` the Potency was inconclusive [activator, single point].
With `COc1ccc(C(=O)c2coc3c2C(=O)C(=O)c2ccccc2-3)cc1` the Potency was inconclusive [activator, single point].
In the case of `CN(C)c1ccc(N/C=C/C(=O)c2ccc(F)cc2)cc1`, the Potency is reported as inconclusive [activator, single point].
In the case of `Cc1nc(N2CCN(c3ccccc3)CC2)nc2c1C(=O)CC(C)C2` (stereo not given), the Potency is reported as inconclusive [activator, partial curve, poor fit].
With `COc1ccc2nc(N3CCN(C(=O)c4ccc([N+](=O)[O-])o4)CC3)sc2c1` the Potency was inconclusive [activator, partial curve, poor fit].
In the case of `CC(C)(Oc1ccc(Cl)cc1)C(=O)NCc1ccco1`, the Potency is reported as inconclusive [activator, single point].
For `O=C(CSc1nc2ccccc2c(=O)n1-c1ccc(F)cc1F)Nc1ccc2c(c1)CCC2`, the Potency was inconclusive [activator, partial curve, poor fit].
With `Cc1ccc(-c2nnc(-c3ccc4ccccc4c3)o2)cc1` the Potency was active: 6.51 µM.
In the case of `CCCC1=Nc2cc(C(=O)NCCN3CCOCC3)ccc2Sc2ccc(C)cc21`, the Potency is reported as inconclusive [activator, partial curve, poor fit].
In the case of `Oc1[nH]c2ccc(Br)cc2c1N=Nc1ccc(C(F)(F)F)cn1`, the Potency is reported as inconclusive [activator, single point].
In the case of `COc1ccc(Sc2ccc(-c3nc4cnccn4c3NC3CCCCC3)cc2OC)cc1`, the Potency is reported as active: 3.26 µM.
For `CCOc1cccc(CN2CCN(CCCc3ccccc3)C(CCO)C2)c1O` (stereo not given), the Potency was inconclusive [activator, single point].
In the case of `COc1ccc(/C=N/Nc2nonc2N)cc1`, the Potency is reported as “inactive”.
With `CCOc1ccc(S(=O)(=O)N(C)C)cc1-c1nc2c(C(C)(C)C)nn(C)c2c(=O)[nH]1` the Potency was inconclusive [activator, single point].
In the case of `Cc1ccc2ncccc2c1NC(=S)NC(=O)c1ccccc1`, the Potency is reported as “inactive”.
In the case of `CN1CCN(C(=O)c2cc([N+](=O)[O-])cc([N+](=O)[O-])c2)CC1`, the Potency is reported as “inactive”.
In the case of `NC1=NC(c2ccc(F)cc2)n2c(nc3ccccc32)N1` (stereo not given), the Potency is reported as active: 25.9 µM.
With `Cc1ccc(/C=N/NC(=O)c2ccc(N(C)S(=O)(=O)c3ccccc3)cc2)cc1` the Potency was “inactive”.
For `Cc1ccc(C)c(NC(=S)N(C)CCO)c1`, the Potency was “inactive”.
In the case of `O=C(Cn1cnc2c(oc3nc4c(cc32)CCCC4)c1=O)Nc1ccccc1`, the Potency is reported as inconclusive [activator, single point].
With `CCCCCCCCNCCS(=O)(=O)NC1CCCCC1` the Potency was inconclusive [activator, single point].
With `CCc1cccc(Nc2c([N+](=O)[O-])cc(C(=O)N3CC(=O)Nc4ccccc43)cc2[N+](=O)[O-])c1` the Potency was “inactive”.
In the case of `Cc1cc(=O)oc2cc(OCc3nnc(-c4ccccc4Br)o3)ccc12`, the Potency is reported as inconclusive [activator, partial curve].
For `CCOC(=O)C(C)Oc1ccc(=O)n(-c2ccccc2)n1` (stereo not given), the Potency was inconclusive [activator, partial curve, poor fit].
In the case of `CCc1ccc(CNC(=O)C2CCN(c3nnc(C)c4c(C)n(-c5ccc(C)cc5)nc34)CC2)cc1`, the Potency is reported as active: 7.31 µM.
In the case of `NC(N)=N/N=C/c1ccc(OCc2ccc(Cl)cc2)cc1`, the Potency is reported as “inactive”.
For `Cc1cc(/C=C2\Cc3ccccc3C2=O)c(C)n1-c1ccccc1`, the Potency was active: 20.6 µM.
